Assay results reported in paper PMC4510971, “Ubinuclein-1 confers histone H3.3-specific-binding by the HIRA histone chaperone complex” (Nature Communications, 2015).

Columns and labels:
H3.3/H4 = biological target: T1, H3.3/H4 (human | X. laevis, UniProt P84243; P62799); assay: SEC; twofold excess of Asf1 mixed with FL H3/H4 in 2.0 M NaCl, dialysed into 20 mM HEPES pH 7.5, 750 mM NaCl, 1 mM TCEP, complex separated from excess Asf1 on Superdex S75; conditions: both partners purified
T1 construct: histone H3.3, human, from a human cDNA library (ATCC 77430); also called H3.3(FL)/H4(FL); FL H3.3/H4; not shown: His6, N-terminal, cleaved; copies: 2 + 2

H3.1/H4 = biological target: T2, H3.1/H4 (human | X. laevis, UniProt P68431; P62799); assay: as above; conditions: both partners purified
T2 construct: also called H3.1(FL)/H4(FL); FL H3.1/H4; not shown: His6, N-terminal, cleaved; copies: 2 + 2

B1: Asf1([…]) (domain or fragment)
chain: not shown
notes: also called Asf1 core domain; source: E. coli BL21-Gold(DE3), GST-Asf1 cleaved with prescission protease; excess free Asf1 separated from the Asf1/H3/H4 complex by gel filtration
Does B1 bind (H3.3/H4)?
Result: binds

Does B1 bind (H3.1/H4)?
Result: binds
